The list shows a part of the results.
Legend:
[1] = tested on: HSkMC (human skeletal muscle cells); test: cytotoxicity call (relative viability < 0.9); settings: 10 µM
[2] = tested on: HepG2; test: cytotoxicity call (relative viability < 0.9); settings: 10 µM
[3] = tested on: S. aureus RN4220; test: growth inhibition call (relative growth <= 0.2); settings: 50 µM

SMILES	cytotoxicity call [1]	cytotoxicity call [2]	growth inhibition call [3]
C[C@H]1CN([C@@H](C)CO)S(=O)(=O)c2ccc(C3=CCCC3)cc2O[C@H]1CN(C)S(=O)(=O)c1ccc(F)cc1	inactive	inactive	inactive
C[C@H]1CN([C@@H](C)CO)S(=O)(=O)c2ccc(C#CCC3CCCC3)cc2O[C@H]1CN(C)C(=O)c1cnccn1	inactive	inactive	inactive
C[C@H](NC(=O)N(C)C[C@@H]1OCc2ccccc2-c2c(n(C)c3ccccc23)C(=O)N([C@@H](C)CO)C[C@@H]1C)c1ccccc1	inactive	inactive	inactive
C[C@H](CO)N1C[C@H](C)[C@H](CN(C)CC2CCCCC2)Oc2ccc(NC(=O)Cn3cnnn3)cc2C1=O	inactive	inactive	inactive
Cc1ccc(S(=O)(=O)N(C)C[C@@H]2Oc3ncc(C#CCC(C)C)cc3C(=O)N([C@@H](C)CO)C[C@H]2C)cc1	inactive	active	inactive
C[C@@H]1CCCCO[C@H](CN(C)Cc2ccccc2)[C@H](C)CN([C@@H](C)CO)C(=O)c2cc(NC(=O)Nc3cccc4ccccc34)ccc2O1	active	active	inactive
O=C(C[C@H]1CC[C@@H]2[C@H](COC[C@@H](O)CN2S(=O)(=O)c2ccc(F)cc2)O1)NCCN1CCCCC1	inactive	inactive	inactive
C[C@@H]1CN([C@H](C)CO)C(=O)Cc2cc(NS(C)(=O)=O)ccc2O[C@@H]1CN(C)C	inactive	inactive	inactive
C[C@H]1CCCCO[C@@H](CN(C)C(=O)Nc2ccccc2)[C@@H](C)CN([C@@H](C)CO)C(=O)c2cc(NC(=O)c3ccccc3)ccc2O1	inactive	inactive	inactive
NCC[C@H]1CC[C@@H](NC(=O)Cc2ccncc2)[C@H](CO)O1	inactive	inactive	inactive
NC(=O)[C@@]1(CCS(=O)(=O)c2ccccc2)N=C(c2ccc(OCCCO)cc2)O[C@H]1c1ccccc1	inactive	inactive	inactive
COc1nc(N)nc2nc[nH]c12	inactive	inactive	inactive
CNC(=N)NCCC[C@@H](N)C(=O)O	inactive	inactive	inactive
COc1cccc(S(=O)(=O)N(C)C[C@H]2Oc3ncc(C#CC(C)C)cc3C(=O)N([C@@H](C)CO)C[C@@H]2C)c1	inactive	inactive	inactive
C[C@H]1CN([C@@H](C)CO)C(=O)c2c(c3ccccc3n2C)-c2ccccc2CO[C@H]1CN(C)C(=O)Nc1ccc2c(c1)OCO2	inactive	inactive	inactive
COc1ccc(NC(=O)Nc2ccc3c(c2)C(=O)N([C@@H](C)CO)C[C@@H](C)[C@@H](CN(C)Cc2ccc(Cl)c(Cl)c2)OCCCC[C@H](C)O3)cc1	inactive	inactive	inactive
O=C(Cc1ccncc1)Nc1ccc2c(c1)[C@H]1C[C@@H](CC(=O)N3CCc4ccccc4C3)O[C@H](CO)[C@H]1O2	inactive	inactive	inactive
C#CCCCCCCCCCCCC(O)CC(O)COC(C)=O (stereo not drawn)	inactive	inactive	inactive
Cc1ccc(S(=O)(=O)N(C)C[C@@H]2Oc3ccc(NC(=O)Nc4cccc5ccccc45)cc3C(=O)N([C@H](C)CO)C[C@H]2C)cc1	inactive	inactive	inactive
CCCNC(=O)[C@@]1(Sc2ccc(C)cc2)CC(=O)N(Cc2ccccc2Cl)[C@@H]1c1ccc(CO)cc1I	inactive	inactive	inactive
COC(=O)c1c(CC[C@@H](CO)NC(=O)N[C@@H](Cc2ccccc2)Cn2cc(C3(O)CCCC3)nn2)oc(C(=O)N2CCOCC2)c1C(=O)OC	inactive	inactive	inactive
C[C@@H]1CN([C@@H](C)CO)C(=O)c2cccc(NC(=O)c3ccc(-c4nccs4)cc3)c2O[C@@H]1CN(C)C(=O)NC1CCCCC1	inactive	inactive	inactive
C[C@H]1CN([C@@H](C)CO)C(=O)c2cc(NC(=O)Nc3ccc4c(c3)OCO4)ccc2O[C@@H]1CN(C)Cc1ccc(C(F)(F)F)cc1	inactive	inactive	inactive
COc1ccc(S(=O)(=O)Nc2ccc3c(c2)CC(=O)N([C@H](C)CO)C[C@H](C)[C@@H](CN(C)Cc2ccc(Oc4ccccc4)cc2)O3)cc1	inactive	inactive	inactive
Cn1cnc(S(=O)(=O)N2C[C@@H](O)COC[C@H]3O[C@@H](CC(=O)NCc4cc(F)cc(F)c4)CC[C@@H]32)c1	inactive	inactive	inactive
Cc1cc(C(=O)Nc2cccc3c2O[C@H](CN(C)Cc2ccc4c(c2)OCO4)[C@@H](C)CN([C@@H](C)CO)C3=O)n(C)n1	inactive	inactive	inactive

From the antibiotic and cytotoxicity screens of Wong et al. (2023)
